Test results reported in PubChem BioAssay AID1347073 (National Center for Advancing Translational Sciences (NCATS), 2019).
In all, about 45,000 compounds went through this assay and about 200 (0.44%) were called active. About 7% were inconclusive and are not listed. The call rests on the fitted dose curve; in most records, active means well fitted activation curve with a large enough effect; inconclusive means small, poorly fitted or top-dose-only effect; inactive means no such curve, though single readings can be large or run the other way. This is one part of the list.

assay: qHTS of TDP-43 Inhibitors: NCGC Sytravon Library Screen; conditions: yeast TDP-43 toxicity rescue, BacTiter-Glo growth, 24 h; series mostly up to 46.1 µM; growth rescue (activation): at the top concentration; further: 0% is about no effect; nearly all actives have a fitted effect of over 55% in size
Procedure, shortened: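 TDP-43-expressing yeast, pregrown in raffinose, seeded at OD600 0.02 in galactose medium with compound for 24 hr at 30 deg C. Growth read by BacTiter-Glo luminescence, so rescue of toxicity appears as activation.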

Structure (SMILES) | growth rescue (activation)
COc1cc(NC(=O)CS(=O)(=O)c2ccccc2)cc(OC)c1OC | inactive: -11.6%
COCCc1ncc(CN2CCC(C(=O)Nc3ccc(-n4cccn4)cc3)CC2)cn1 | inactive: 11%
Cc1c(CNC2CCC(C)CC2)c(C(=O)O)c(C)n1Cc1ccccc1 (stereo not drawn) | inactive: 0.664%
CCc1nc2ccccc2[nH]c1=O | inactive: 15.8%
O=C(O)c1ccc(COc2ccccc2[N+](=O)[O-])o1 | inactive: 1.86%
Cn1c(=O)c2cc(NC(=O)NCc3ccccc3)ccc2n1C/C=C/c1ccccc1 | inactive: 12.2%
CCCCc1nc2ccccc2c(=O)n1NC(=O)c1c(O)c2ccccc2n(C)c1=O | inactive: 12.3%
Cc1nn2c(Nc3ccccc3)c3c(nc2c1-c1ccccc1)CCC3 | inactive: 30.7%
CN(C)CC(C)(C)CNS(=O)(=O)c1cccc2nsnc12 | inactive: 3.8%
Cc1cc(SCC(=O)NN=C2CCN(C(C)C)CC2)c(C)cc1Br | inactive: 20.8%
COc1ccc(C(=O)CN2CCN(c3ncccn3)CC2)cc1 | inactive: -14.8%
CCCN(CC(=O)Nc1ccccc1OC)C(=O)c1ccncc1 | inactive: -13.8%
O=C(NCC(=O)N(c1ccccc1)C(C(=O)NC1CCCC1)c1ccncc1)c1cccs1 (stereo not drawn) | inactive: -13.7%
O=C1NCC(=O)N2C(c3ccccc3)c3[nH]c4ccccc4c3C[C@@H]12 (stereo partly drawn) | inactive: -2.29%
CC(C)c1ccc2oc(=O)cc(CN3CCCCC3)c2c1 | inactive: -3.61%
CCCCCCn1nc(C(=O)OCC(=O)c2c(N)n(C)c(=O)n(C)c2=O)c2ccccc2c1=O | inactive: 6.79%
CCOC(=O)c1ccccc1NC(=O)C1CC(=O)N(C2CCCC2)C1 (stereo not drawn) | inactive: -5%
Cc1ccc(S(=O)(=O)N[C@H](C(=O)Oc2ccc3c(C(F)(F)F)cc(=O)oc3c2)c2ccccc2)cc1 | inactive: -20.2%
Cc1cccc(C)c1NC(=O)CNC(=O)c1cncc(Br)c1 | inactive: 5.33%
CC(CC(=O)C1C(C)C=CCC1(C)C)NNC(N)=O (stereo not drawn) | inactive: -3.26%
CCCn1nc(C(=O)OCC(=O)Nc2ccc(C(N)=O)cc2)c2ccccc2c1=O | inactive: 7.41%
COc1ccccc1N=C1SC(C(=O)Nc2ccccc2OC)CC(=O)N1C (stereo not drawn) | inactive: 9.16%
CCn1ccnc1CN(C)C(=O)CC1C(=O)NCCN1Cc1c(F)cccc1Cl (stereo not drawn) | inactive: -1.92%
COCCn1c(SCC(=O)NNC(=O)c2ccccc2)nc2ccccc21 | inactive: -9.12%
Cc1onc(-c2ccccc2)c1C(=O)N1CCCSC1=Nc1ccccc1 | inactive: -14.9%
N#Cc1c(SCC(N)=O)nc2c(c1-c1ccncc1)CCCC2 | inactive: 13.6%
COc1ccc(C(=O)N/N=C/c2ccc(N3CCOCC3)o2)cc1OC | inactive: 9.77%

Structure (SMILES) | growth rescue (activation)
N#CC(=C(O)CN1CCN(c2ccccc2F)CC1)c1nc(-c2ccccc2)cs1 | inactive: -6.33%
CCOC(=O)c1c(C)[nH]c(C)c1C(=O)COC(=O)c1ccc(Cl)nc1 | inactive: 18.7%
O=C(O)c1ccc(Oc2c(C(F)(F)F)oc3cc(O)ccc3c2=O)cc1 | inactive: -0.367%
COc1ccc(C2=NN(C(=O)c3cccnc3)C(c3ccccc3)C2)cc1 (stereo not drawn) | inactive: 26.1%
CCOC(=O)Nc1ccc2c(c1)nc1n2CCN(CCOC)C1 | inactive: -12.5%
NNc1nc2c(-c3cccc(C(F)(F)F)c3)nnn2c2ccccc12 | inactive: 35.1%
COc1ccccc1C(C)NC(=O)CCOc1cccc(C)c1 (stereo not drawn) | inactive: 8.86%
Fc1ccc(-n2nnc(-c3ccccc3Cl)n2)cc1 | inactive: 10.3%
N#Cc1cccc(NC(=O)CCN2C(=O)C3CCCCC3C2=O)c1 (stereo not drawn) | inactive: 11.3%
Cc1n[nH]c(C)c1CCC(=O)N/N=C/c1c(C)[nH]c2ccccc12 | inactive: 17.5%
Cc1nn(C)cc1C(C(=O)NC1CCCCC1)N(C(=O)c1cnccn1)c1ccc(Oc2ccccc2)cc1 (stereo not drawn) | inactive: 10.2%
Cc1ccc(S(=O)(=O)N2CCOCC2)cc1C(=O)N1CCC(Cc2ccccc2)CC1 | inactive: 16.8%
Cn1cccc1/C=N/NC(=O)C12CC3CC(CC(C3)C1)C2 | inactive: 16.3%
Cc1cccc(C)c1NC(=S)NCCc1ccccn1 | inactive: -8.06%
COc1ccc(N2C(=O)CC(NNc3nc4ccccc4s3)C2=O)cc1 (stereo not drawn) | inactive: 15.9%
COc1cc(C(=O)c2c(C)c(CCC#N)n3ccccc23)cc(OC)c1OC | inactive: -6.7%
CC(C)N(Cc1ccccc1)C(=O)/C=C/c1ccccc1[N+](=O)[O-] | inactive: 3.75%
CC1CCc2cc(F)ccc2N1C(=O)CSc1nnc2c3cc(F)ccc3n(C)c2n1 (stereo not drawn) | inactive: 3.96%
O=[N+]([O-])c1ccc(NC(=S)NCC(c2cccnc2)N2CCOCC2)cc1 (stereo not drawn) | inactive: 2.85%
CNC(=O)c1ccc(N(Cc2ccccc2)S(C)(=O)=O)cc1 | inactive: 15.5%
O=C(NC1CCCC1)C1CCN(C(=O)Nc2cccc(Cl)c2)CC1 | inactive: 5.7%
C=CCOc1ccc(-c2nc3c(c(=O)[nH]c(=O)n3Cc3ccccc3)n2CCCOC)cc1 | inactive: 15.7%
CCOC(=O)c1c(N)sn(-c2ccccc2)c1=S | inactive: 25.6%
COc1ccc(-n2ncc3c(=O)n(CC(=O)N(C(C)C)C(C)C)cnc32)cc1 | inactive: 3.17%
Cc1cc2cc(C)c3nnc(SCc4ccccn4)n3c2cc1C | inactive: 15.9%
CCCCCCCCS(=O)CCC(=O)O (stereo not drawn) | inactive: 0.258%
